In the assay the target is hAG-p62 (human), Q13501. The assay is described as follows: Fluoppi (phase-separated fluorescent foci in cells); hAG-tagged autophagy adaptor and HA-Ash-6Ub transiently co-expressed in HeLa (WT, Penta KO, FIP200 KO, ATG5 KO, ATG9A KO) or HCT116 (WT, TBK1-/-) cells; foci formation and incorporation of a third protein into the foci read by immunostaining and confocal microscopy; some samples with 2 µM BX-795 for 15 h. As to conditions: remark: other sources report otherwise.

Results are given in words; binding and its absence hold for the method and conditions named.

B1: ATG13, O75143 1-517 (protein)
chain: METDLNSQDRKDLDKFIKFFALKTVQVIVQARLGEKICTRSSSSPTGSDWFNLAIKDIPEVTHEAKKALAGQLPAVGRSMCVEISLKTSEGDSMELEIWCLEMNEKCDKEIKVSYTVYNRLSLLLKSLLAITRVTPAYRLSRKQGHEYVILYRIYFGEVQLSGLGEGFQTVRVGTVGTPVGTITLSCAYRINLAFMSTRQFERTPPIMGIIIDHFVDRPYPSSSPMHPCNYRTAGEDTGVIYPSVEDSQEVCTTSFSTSPPSQLSSSRLSYQPAALGVGSADLAYPVVFAAGLNATHPHQLMVPGKEGGVPLAPNQPVHGTQADQERLATCTPSDRTHCAATPSSSEDTETVSNSSEGRASPHDVLETIFVRKVGAFVNKPINQVTLTSLDIPFAMFAPKNLELEDTDPMVNPPDSPETESPLQGSLHSDGSSGGSSGNTHDDFVMIDFKPAFSKDDILPMDLGTFYREFQNPPQLSSLSIDIGAQSMAEDLDSLPEKLAVHEKNVREFDAFVETLQ
As to B1, the binding result is given as “no binding”.

For the origin of these results see paper PMC7480101.
